Laboratory results as given in the supplement of paper PMC4967469.
IC50 is the fitted dose that halves viability relative to control wells, and lower means more sensitive; fits outside the tested doses are given as limits. AUC sums up the same curve from the lowest dose to the 256-fold higher top dose; it is 1 without any effect and falls as sensitivity rises. For some assays here: The top dose, if marked as inferred, was derived from the fitted curves, not read from the paper. For some assays here: Where an entry number is given, a second screen of the drug exists; the two often differ.

Tests used:
Assay in all cases: Viability of human cancer cell lines after 72 h of drug (GDSC screen)
(5Z)-7-Oxozeaenol = compound: COc1cc(O)c2c(c1)/C=C/C[C@H](O)[C@H](O)C(=O)/C=C\C[C@H](C)OC2=O [(5Z)-7-Oxozeaenol]; settings: top dose 10 µM; top dose inferred
Protocol: (§1)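 Human cancer cell lines in 384-well plates, medium with 10% serum, drug for 72 h over a 256-fold dose range (nine 2-fold or five 4-fold steps up to the top dose). Adherent lines were fixed and stained with the nucleic acid dye Syto60, suspension lines read with resazurin; signal relative to control wells, capped at 0 and 100%. One two-parameter sigmoid per drug and line, fitted in a mixed model over all curves with the slope shared within a line.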

KU-55933 = compound: O=c1cc(-c2cccc3c2Sc2ccccc2S3)oc(N2CCOCC2)c1 [KU-55933]; settings: top dose 10 µM
Protocol: as §1

CP466722 = compound: COc1cc2ncnc(-n3nc(-c4ccccn4)nc3N)c2cc1OC [CP466722]; settings: top dose 16 µM; top dose inferred
Protocol: as §1

ABT-888 = compound: C[C@]1(c2nc3c(C(N)=O)cccc3[nH]2)CCCN1 [ABT-888]; settings: top dose 5 µM; top dose inferred
Protocol: as §1

MPS-1-IN-1 = compound: COc1cc(N2CCC(O)CC2)ccc1Nc1cc(Nc2ccccc2S(=O)(=O)C(C)C)c2cc[nH]c2n1 [MPS-1-IN-1]; settings: top dose 20 µM; top dose inferred
Protocol: as §1

Cytarabine = compound: Nc1ccn([C@@H]2O[C@H](CO)[C@@H](O)[C@@H]2O)c(=O)n1 [Cytarabine]; settings: top dose 2 µM
Protocol: as §1

ABT-869 = compound: Cc1ccc(F)c(NC(=O)Nc2ccc(-c3cccc4[nH]nc(N)c34)cc2)c1 [ABT-869]; settings: top dose 1.024 µM; top dose inferred
Protocol: as §1

Thapsigargin = compound: C/C=C(/C)C(=O)O[C@H]1C(C)=C2[C@H]([C@@H]1OC(=O)CCCCCCC)[C@@](C)(OC(C)=O)C[C@H](OC(=O)CCC)[C@@]1(O)[C@H]2OC(=O)[C@@]1(C)O [Thapsigargin]; settings: top dose 0.512 µM; top dose inferred
Protocol: as §1

CHIR-99021 = compound: Cc1cnc(-c2cnc(NCCNc3ccc(C#N)cn3)nc2-c2ccc(Cl)cc2Cl)[nH]1 [CHIR-99021]
Protocol: as §1

QL-X-138 = compound: C=CC(=O)Nc1cc(-n2c(=O)ccc3cnc4ccc(-c5cn[nH]c5)cc4c32)ccc1C [QL-X-138]; settings: top dose 10.24 µM; top dose inferred
Protocol: as §1

GSK269962A = compound: CCn1c(-c2nonc2N)nc2cnc(Oc3cccc(NC(=O)c4ccc(OCCN5CCOCC5)cc4)c3)cc21 [GSK269962A]; settings: top dose 5 µM; screen: GDSC drug entry 1192; top dose inferred
Protocol: as §1

Zibotentan = compound: COc1nc(C)cnc1NS(=O)(=O)c1cccnc1-c1ccc(-c2nnco2)cc1 [Zibotentan]; settings: top dose 20 µM; top dose inferred
Protocol: as §1

[1] = top dose 2.56 µM, screen: GDSC drug entry 154
[2] = top dose 10 µM, screen: GDSC drug entry 1241, top dose inferred

| Cell Line | AUC ((5Z)-7-Oxozeaenol) | IC50 ((5Z)-7-Oxozeaenol) [nM] | AUC (KU-55933) | IC50 (KU-55933) [µM] | AUC (CP466722) | IC50 (CP466722) [µM] | AUC (ABT-888) | IC50 (ABT-888) [µM] | AUC (MPS-1-IN-1) | IC50 (MPS-1-IN-1) [µM] | AUC (Cytarabine) | IC50 (Cytarabine) [nM] | AUC (ABT-869) | IC50 (ABT-869) [nM] | AUC (Thapsigargin) | IC50 (Thapsigargin) [nM] | AUC (CHIR-99021; [1]) | IC50 (CHIR-99021; [1]) [nM] | AUC (CHIR-99021; [2]) | IC50 (CHIR-99021; [2]) [nM] | AUC (QL-X-138) | IC50 (QL-X-138) [nM] | AUC (GSK269962A) | IC50 (GSK269962A) [µM] | AUC (Zibotentan) | IC50 (Zibotentan) [µM] |
| --- | --- | --- | --- | --- | --- | --- | --- | --- | --- | --- | --- | --- | --- | --- | --- | --- | --- | --- | --- | --- | --- | --- | --- | --- | --- | --- |
| RT4 (bladder, adherent) | 0.746 | 3300 | 0.987 | > 10 | 0.658 | 2.82 | 0.985 | > 5 | 0.916 | > 20 | 0.908 | > 2000 | 0.978 | > 1020 | 0.245 | 5.63 | 0.967 | > 2560 | 0.898 | > 10000 | 0.678 | 2070 | 0.981 | > 5 | 0.986 | > 20 |
| RVH-421 (melanoma, adherent) | 0.451 | 437 | 0.926 | > 10 | 0.85 | > 16 | 0.98 | > 5 | 0.893 | > 20 | 0.88 | > 2000 | 0.941 | > 1020 | 0.348 | 10.3 | 0.914 | > 2560 | 0.87 | > 10000 | 0.972 | > 10200 | 0.861 | > 5 | 0.976 | > 20 |
| SAS (head and neck, adherent) | 0.433 | 401 | 0.975 | > 10 | 0.779 | 7.34 | 0.945 | > 5 | 0.843 | 16.6 | 0.493 | 120 | 0.977 | > 1020 | 0.574 | 52.1 | 0.984 | > 2560 | 0.982 | > 10000 | 0.645 | 1700 | 0.956 | > 5 | 0.983 | > 20 |
| SBC-3 (small cell lung carcinoma, adherent) | 0.441 | 438 | 0.942 | > 10 | 0.603 | 1.87 | 0.989 | > 5 | 0.742 | 5.68 | 0.416 | 75.5 | 0.969 | > 1020 | 0.281 | 8.19 | 0.952 | > 2560 | 0.979 | > 10000 | 0.343 | 246 | 0.927 | > 5 | 0.989 | > 20 |
| SBC-5 (small cell lung carcinoma, adherent) | 0.672 | 1700 | 0.987 | > 10 | 0.955 | > 16 | 0.992 | > 5 | 0.979 | > 20 | 0.971 | > 2000 | 0.992 | > 1020 | 0.185 | 4.71 | 0.993 | > 2560 | 0.982 | > 10000 | 0.95 | > 10200 | 0.906 | 4.58 | 0.993 | > 20 |
| SCC-9 (head and neck, adherent) | 0.474 | 519 | 0.903 | > 10 | 0.729 | 5.45 | 0.981 | > 5 | 0.836 | 18.9 | 0.824 | 1650 | 0.981 | > 1020 | 0.768 | 245 | 0.839 | 2500 | 0.979 | > 10000 | 0.563 | 996 | 0.924 | > 5 | 0.974 | > 20 |
| SCC-25 (head and neck, adherent) | 0.679 | 2120 | 0.98 | > 10 | 0.803 | 9.18 | 0.983 | > 5 | 0.846 | 17.6 | 0.849 | 1820 | 0.981 | > 1020 | 0.335 | 10.4 | 0.973 | > 2560 | 0.982 | > 10000 | 0.688 | 2320 | 0.949 | > 5 | 0.975 | > 20 |
| SJRH30 (rhabdomyosarcoma, adherent) | 0.788 | 4560 | 0.975 | > 10 | 0.829 | 10.4 | 0.986 | > 5 | 0.875 | > 20 | 0.375 | 55.7 | 0.98 | > 1020 | 0.278 | 7.31 | 0.985 | > 2560 | 0.985 | > 10000 | 0.505 | 660 | 0.872 | > 5 | 0.986 | > 20 |
| SK-MEL-3 (melanoma, adherent) | 0.695 | 2430 | 0.979 | > 10 | 0.985 | > 16 | 0.98 | > 5 | 0.798 | 11.3 | 0.906 | > 2000 | 0.984 | > 1020 | 0.294 | 7.6 | 0.984 | > 2560 | 0.982 | > 10000 | 0.901 | > 10200 | 0.983 | > 5 | 0.982 | > 20 |
| SK-MEL-30 (melanoma, adherent) | 0.352 | 238 | 0.949 | > 10 | 0.876 | > 16 | 0.985 | > 5 | 0.846 | 15.7 | 0.883 | > 2000 | 0.983 | > 1020 | 0.276 | 7.1 | 0.985 | > 2560 | 0.983 | > 10000 | 0.703 | 2470 | 0.984 | > 5 | 0.983 | > 20 |
